# Measured values reported in PubChem BioAssay AID485297 (National Center for Advancing Translational Sciences (NCATS), 2010).
# Hit rate of the full screen: of about 320,000 compounds, about 9,100 (2.8%) were called active. Inconclusive means that the source gave no clear call. Such entries were picked first, then a sample of the others. Calls follow the shape of the dose curve; as a rule, active = well fitted activation curve with a large enough effect; inconclusive = small, poorly fitted or top-dose-only effect; inactive = no such curve, though single readings can be large or run the other way. No potency is given beside an inconclusive call; the fits are too rough.
# Assay: qHTS Assay for Rab9 Promoter Activators; also: nearly all actives have a fitted effect of over 60% in size; as to activation, negative = inhibition: % of control where 0% means no effect
# Details: Huh7 Rab9 promoter-luciferase reporter, luminescence, 24 h; series mostly up to 9.22 µM; activation, negative = inhibition: at the top concentration
# Outline: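 Promoter activation is measured as luciferase luminescence in Huh7 cells stably transfected with a Rab9 promoter–luciferase construct, following 24 h compound exposure at 37 °C and 10 min reagent incubation at ambient temperature.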
# Potency is read from the fitted curve at half-maximal effect; tags tell the direction and shape of the fitted curve.
SMILES,"activation, negative = inhibition",Potency
O=C(NCCS(=O)(=O)NCc1cccnc1)c1ccccc1,inactive: -4.71%,
O=C(NCCS(=O)(=O)NCc1ccccc1Cl)c1ccc2c(c1)OCO2,inactive: -0.834%,
CC(=O)Nc1ccc(-c2csc(Nc3ccccn3)n2)cc1,,active: 0.447 µM
O=C(CN1C(=O)S/C(=C\C=C\c2ccccc2)C1=O)Nc1ccc(O)cc1,,"inconclusive [activator, single point]"
O=C(O/N=C1/CCSc2ccccc21)c1ccc(F)cc1,inactive: -0.705%,
O=C(/C=C/c1ccc[nH]1)c1ccccc1,,"inconclusive [activator, single point]"
Cc1ccc(S[C@@H](CCN2CC[C@H](C)CCC2=O)c2ccccc2)cc1,inactive: -1.81%,
CCOc1ccc(C(CC(=O)O)NC(=O)c2sc3ccccc3c2Cl)cc1 (stereo unspecified),inactive: 1.99%,
COc1ccc(NC(=O)NC(=O)c2ccccc2)cc1,,active: 0.708 µM
Cc1ccc(-c2csc(-c3cc(C)on3)n2)cc1,,"inconclusive [activator, single point]"
Fc1ccc(-c2ccc(NCCN3CCOCC3)nn2)cc1,,"inconclusive [activator, partial curve]"
CC(C)(C)c1ccc(OCCCC(=O)N2CCOCC2)cc1,,"inconclusive [activator, single point]"
O=C(COC(=O)CNC(=O)c1cccc(OC(F)F)c1)NNC(=O)c1ccccc1,inactive: -3.71%,
CCc1ccc(Nc2nnc(SCC(=O)N(C)C3CCS(=O)(=O)C3)s2)cc1 (stereo unspecified),,"inconclusive [activator, partial curve]"
CC(C)c1cc(C(=O)Nc2cccnc2)no1,,active: 2.82 µM
CCN(CC)S(=O)(=O)c1ccc(C(=O)Nn2cnnc2)cc1,inactive: 0.567% [at 1.84 µM],
Cc1cc(C(=O)CSc2nc3ccccc3c(=O)[nH]2)c(C)n1CC1CCCO1 (stereo unspecified),,"inconclusive [activator, full curve]"
c1ccc(CCc2nc(-c3ccccc3)no2)cc1,,"inconclusive [activator, partial curve]"
CC(C)(C)c1csc(NC(=O)c2ccc(Br)o2)n1,,"inconclusive [activator, partial curve]"
Cc1nn(C)c(=O)n1-c1ccc(OCc2ccccc2)cc1,,"inconclusive [activator, single point]"
Cc1cc(C)c(C(=O)N(C)C2CCCN(Cc3ccccc3F)C2)o1 (stereo unspecified),inactive: 6.81%,

SMILES,"activation, negative = inhibition",Potency
CC(C)(C)NC(=S)NNC(=O)c1ccccc1Cl,inactive: -3.33%,
CC(O)c1nc2ccccc2n1C(C)c1ccccc1 (stereo unspecified),inactive: -3.32%,
O=C(CCS(=O)(=O)c1ccccc1)Nc1cccc(-c2nc3ccccc3s2)c1,,"inconclusive [activator, single point]"
CCN1CCc2c(sc(NC(=O)c3cc4ccccc4cc3OC)c2C(N)=O)C1,inactive: 3.59%,
Fc1ccc(COc2ccc(C(=S)N3CCCC3)cc2)cc1,,active: 1.26 µM
Cn1nnnc1SCC(=O)Nc1ccc2c(c1)OCCO2,,active: 1.58 µM
COc1ccc(NC(=O)CCCCCn2nnc3ccccc3c2=O)cc1OC,inactive: -14.4%,
O=C(/C=C/c1c(Cl)nc2ccccn12)N1CCCCC1,,"inconclusive [activator, partial curve]"
CC(C)c1ccc(CNc2ncc(Br)cn2)cc1,,"inconclusive [activator, partial curve]"
CCN(CC)c1ccc(NC(=O)Nc2cccc3ccccc23)cc1,inactive: 18.2%,
Clc1ccc(-n2ncc3c(NCc4ccccn4)ncnc32)cc1,,"inconclusive [activator, partial curve]"
COc1cccc(NC(=O)c2ccc(C(=O)c3ccccc3)o2)c1,,"inconclusive [activator, single point]"
COc1ccc(NC(=O)c2cccc(NC(=O)c3ccccc3)c2)cc1,,"inconclusive [activator, single point]"
O=C(N/N=C/c1cc2c(cc1Br)OCO2)c1c[nH]c2ccccc12,,active: 2.51 µM
CSC1=NNC(c2ccc(C(C)(C)C)cc2)=NN1,,"inconclusive [activator, partial curve]"
COc1c(C)cccc1C(=O)NCCCNC(=O)c1ccc(C)nc1,inactive: 17.8%,
CCCOC(=O)c1ccc(NC(=O)CC(C)(C)C)cc1,,"inconclusive [activator, full curve]"
O=C(Nc1ccc(Cl)cc1)OCc1cncs1,,"inconclusive [activator, single point]"
C=CC[C@H](N)C(=O)O,inactive: 18.4% [at 46.1 µM],
COc1ccc(-c2cn(-c3ccccc3)nc2CO)cc1,,"inconclusive [activator, single point]"
CCOc1ccc(N(CC(=O)Nc2cccc(C)c2)S(C)(=O)=O)cc1,,"inconclusive [activator, partial curve]"

SMILES,"activation, negative = inhibition",Potency
Cc1c(C(=O)/C=C/c2cccs2)oc2ccc(F)cc12,,active: 3.98 µM
COc1cc(C(=S)N2CCCC2)ccc1OCc1ccc(C)cc1,,"inconclusive [activator, single point]"
O=C(Nc1cccc(O)c1)c1cc(-c2ccc3c(c2)OCO3)on1,,"inconclusive [activator, single point]"
Cc1ccc(NC(=O)COc2cccc(-n3cnnn3)c2)cc1S(=O)(=O)N1CCOCC1,inactive: -8.99%,
CCC(=O)Nc1nnc(SCc2ccccc2F)s1,,"inconclusive [activator, single point]"
CCSc1ncc(/C=N/Nc2ccc([N+](=O)[O-])cc2)n1C,,active: 0.708 µM
CCCCCCCC(=O)N1CCN(c2cc3c(cc2F)c(=O)c(C(=O)O)cn3CC)CC1,inactive: -1.95%,
CCOc1ccc(N/C=C/C(=O)c2ccc(OC)c(OC)c2)cc1,,active: 4.47 µM
O=C(Nc1ccc2nc(-c3cccs3)[nH]c2c1)c1ccco1,,"inconclusive [activator, single point]"
CCOC(=O)C1(Cc2ccccc2Cl)CCN(C(=O)CN2CCOC2=O)CC1,,active: 3.55 µM
O=C(CN1CCc2ccccc21)NC(=O)NC1CCCCC1,inactive: 1.83%,
COCC(C)n1c(C)cc(C(=O)CSc2ccc(NC(C)=O)cc2)c1C (stereo unspecified),,"inconclusive [activator, partial curve]"
Cc1ccc(/C=C/C(=O)Nc2cccnc2)o1,,"inconclusive [activator, single point]"
CCOC(=O)/C(=N\Nc1ncnc2ccccc12)c1ccc(C)cc1,,"inconclusive [activator, partial curve]"
Cc1cc(C(=O)CN2CCCCC2)c(C)n1-c1ccc(F)cc1,,"inconclusive [activator, single point]"
CCCc1ccc(C(=O)/C=C/N(C)C)cc1,,active: 1.41 µM
Nc1nc2ccccc2cc1-c1cccs1,,"inconclusive [activator, partial curve]"
NNC(=O)c1sc(-c2ccc(Cl)cc2)cc1N,,"inconclusive [activator, single point]"
O=C(CCNC(=O)c1ccccc1Cl)Nc1nc(-c2ccc(F)cc2)cs1,inactive: 1.62%,
CCOC(=O)c1ccc(NC(=O)N2CCCCC2)cc1,,active: 3.16 µM
CN(CC(=O)Nc1ccc2c(c1)OCO2)S(=O)(=O)c1cccs1,,"inconclusive [activator, single point]"

SMILES,"activation, negative = inhibition",Potency
Cn1c(SCC(=O)NCCc2ccccc2)nnc1-c1ccncc1,inactive: 5.93%,
C(=N\Nc1nncc2ccccc12)/c1ccccn1,,"inconclusive [activator, partial curve]"
Cc1nnc(SCC(=O)c2ccc(C(C)C)cc2)s1,,"inconclusive [activator, single point]"
COc1ccccc1CNC(=O)c1cc(C(C)=O)c[nH]1,inactive: 0.0601% [at 1.84 µM],
COc1cc2ccccc2cc1C(=O)NCC(c1cccs1)N(C)C (stereo unspecified),,"inconclusive [activator, partial curve]"
CC(Cc1cccs1)NC(=O)c1cccc(Cl)c1 (stereo unspecified),,"inconclusive [activator, single point]"
O=S(=O)(NCCc1ccccc1)c1ccc(Br)cc1,inactive: 11.9%,
COc1ccccc1N=Nc1nc(-c2ccccc2)c(-c2ccccc2)[nH]1,inactive: 0.0913%,
Cn1c(=O)c(-c2cc(Br)ccc2N)nc2ccccc21,,"inconclusive [activator, single point]"
COC(=O)c1ccc(CSc2nc3ccccc3s2)o1,,"inconclusive [activator, partial curve]"
CC(Cc1ccccc1)NC(=O)CN1C(=O)c2ccccc2S1(=O)=O (stereo unspecified),,"inconclusive [activator, single point]"
CCOC(=O)C(C)(C)Oc1ccc(Cl)cc1,,inactive
CC(C)(C)c1ccc(C(=O)NNC(=O)c2ccc(Cl)cc2)cc1,inactive: -3.58%,
COc1ccc(C2=NN(S(C)(=O)=O)C(c3cccs3)C2)cc1OC (stereo unspecified),,"inconclusive [activator, partial curve]"
CC(C)(C)c1ccc(/C=C/C(=O)N2CCOCC2)cc1,,"inconclusive [activator, partial curve]"
CCCCCCc1ccc(-c2ncc(N)cn2)cc1,,"inconclusive [activator, partial curve]"
COC(=O)c1sc(NC(=S)NC(=O)c2ccc(F)cc2)nc1C,,"inconclusive [activator, partial curve]"
Oc1c(/C=N/Nc2cccc3cccnc23)ccc2ccccc12,,active: 3.16 µM
